# Source: the BET-seq Pho4 binding data (Le et al. 2018)
# The other results are listed elsewhere or left out. These are noisy estimates, calculated here from bound and input reads.
# Target: T1, Pho4 (S. cerevisiae) (UniProt P07270)
# T1 sequence: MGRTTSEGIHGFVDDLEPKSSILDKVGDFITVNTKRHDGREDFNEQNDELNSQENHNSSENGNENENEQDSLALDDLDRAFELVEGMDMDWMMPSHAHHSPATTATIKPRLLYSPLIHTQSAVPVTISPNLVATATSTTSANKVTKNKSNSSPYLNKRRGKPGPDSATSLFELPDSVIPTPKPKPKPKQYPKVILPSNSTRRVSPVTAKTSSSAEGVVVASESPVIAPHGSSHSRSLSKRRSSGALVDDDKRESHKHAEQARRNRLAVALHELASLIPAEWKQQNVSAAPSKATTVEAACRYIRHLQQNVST
# Assay: relative binding free energy (BET-seq); higher = weaker binding
# Conditions: reference: library average
row,Sequence,relative binding free energy [kcal/mol]
1,AGCGTCACGTGGGCGC,0
2,GTCGACACGTGAGAGG,0.26
3,TTTTCCACGTGATTTA,0.15
4,GTGGGCACGTGTTAAA,0.07
5,TTAGGCACGTGACGTA,0.02
6,CGATACACGTGGGTTG,-0.18
7,ATGTGCACGTGAATTA,0.05
8,AAGTCCACGTGTTGGA,0.17
9,TTAGTCACGTGTTGAC,0.04
10,TGCGCCACGTGGGGGG,-0.25
11,ATGTCCACGTGGTGTT,-0.14
12,TGAGGCACGTGCGTTC,-0.05
13,TAAAGCACGTGCGGTA,-0.06
14,CTTGTCACGTGCGGGC,0.2
15,TGGGCCACGTGCGTTT,-0.12
16,CTTGGCACGTGTCGGT,-0.21
17,GTTGGCACGTGCGTTT,-0.13
18,TTGGGCACGTGCTTTG,-0.09
19,TTTCCCACGTGTAGGT,0.11
20,AAGTTCACGTGCGGTA,0.23
21,GAGTGCACGTGTAAAT,0.19
22,TTTTGCACGTGTATGA,0.1
23,TTGGGCACGTGAGAAT,0.26
24,TGTGACACGTGCTTAT,-0.08
25,GTTGACACGTGGATTT,0.16
26,ATCTGCACGTGGGGGG,-0.13

row,Sequence,relative binding free energy [kcal/mol]
1,CGCGTCACGTGTGTTG,-0.04
2,ATGTTCACGTGAAGGT,0.44
3,TAGGGCACGTGTGGTT,0.02
4,GGCTCCACGTGGGTTG,-0.15
5,TAATACACGTGGATGG,-0.03
6,GAGGTCACGTGGCGGA,0.14
7,AGGGACACGTGATATA,0.07
8,GGTCGCACGTGTGTGT,0.05
9,TGTTTCACGTGGCCGG,0.11
10,TTGGGCACGTGGCTGA,-0.23
11,GTGCGCACGTGATTTG,0.01
12,TGTTGCACGTGAAAAA,0.32
13,ATTGACACGTGAATGA,0.25
14,TCGTCCACGTGGGAGG,-0.06
15,TGAGGCACGTGGAGAG,-0.14
16,GTGAACACGTGCATGG,0
17,GTTAACACGTGGTTAG,0.05
18,TTGCACACGTGGTGCT,-0.06
19,TGGTTCACGTGAGTGA,0.32
20,TATTTCACGTGGCGGC,0.21
21,TAGCGCACGTGGTGAA,-0.13
22,TAATACACGTGGGTCT,-0.09
23,TCTTACACGTGGCGTT,0.15
24,GCGTACACGTGTTTTA,0.23
25,TGATTCACGTGAGTTA,0.33
26,GCCGTCACGTGGTTTT,0.22

row,Sequence,relative binding free energy [kcal/mol]
1,TCGTGCACGTGCAGTT,-0.1
2,ATCTTCACGTGATAGG,0.1
3,CTAGTCACGTGCTGTT,0.03
4,AAGTTCACGTGGGACG,0.22
5,TGGGCCACGTGAGATG,0.05
6,TGGTTCACGTGGCTAG,0.24
7,TTAGGCACGTGGAGTA,-0.07
8,ATTAGCACGTGGGATT,-0.07
9,TAAATCACGTGGTCTT,0.08
10,GGGAGCACGTGTTTAA,-0.01
11,TGGTTCACGTGCTTTC,0.31
12,TAATCCACGTGGGTTG,0
13,GTTGCCACGTGGAAGG,-0.11
14,TATAGCACGTGTGTGG,-0.04
15,CGTAGCACGTGTATGG,-0.13
16,AGAGGCACGTGTGCGC,-0.08
17,ATTATCACGTGCGGTG,0.13
18,TGAGGCACGTGATAGA,-0.09
19,GTTTGCACGTGGAGAA,0.16
20,GTAAGCACGTGTATGC,0.01
21,CAGGTCACGTGAGTAG,0.18
22,ATGATCACGTGCTTGG,0.06
23,TGGTGCACGTGTTACT,0.05
24,GGTCACACGTGTGCGG,0.08
25,TGGAACACGTGGGTAT,0
26,CCGGTCACGTGGGTTG,-0.16

row,Sequence,relative binding free energy [kcal/mol]
1,CGATACACGTGGGGGT,-0.06
2,TTGTACACGTGCGGAT,0.05
3,GTTGGCACGTGGGGAC,-0.22
4,GAAGGCACGTGATGGG,0.01
5,TGAGGCACGTGGCTTG,-0.18
6,GTGGGCACGTGCGTGG,-0.17
7,TTATGCACGTGCTGTG,-0.09
8,TTTTACACGTGAAGAG,0.24
9,CGTGTCACGTGTGGCC,0.26
10,TGGTACACGTGCGCGT,-0.04
11,AGTTGCACGTGTCGTA,0.03
12,AGGCGCACGTGAGCTG,0.17
13,AAGTCCACGTGGTGGG,0.03
14,TCCGGCACGTGATGTT,0
15,GTGTGCACGTGCGTGC,-0.25
16,TATGACACGTGGATAG,0.09
17,GATCGCACGTGGAGGG,0.01
18,GTTATCACGTGGGTGG,0.12
19,AAAGTCACGTGGGGGC,-0.11
20,TATATCACGTGTTGTT,0.1
21,TAGCGCACGTGGTGTG,-0.29
22,ATGATCACGTGGCGGT,0.15
23,ATTAGCACGTGAGTTG,0.01
24,GATTTCACGTGTTCTT,0.29
25,ACGAACACGTGGAGGG,0.07
26,GTAGGCACGTGTGCGC,-0.08

row,Sequence,relative binding free energy [kcal/mol]
1,GGTATCACGTGTGTAT,0.19
2,GGAATCACGTGTTGGT,0.29
3,AGGTGCACGTGTGTAT,0.01
4,GGGGTCACGTGTAATC,0.27
5,TGGGGCACGTGTAGGG,0.04
6,AGTTTCACGTGGCCTT,0.34
7,GTAATCACGTGGTGTC,0.05
8,GGGTTCACGTGCTCGG,0.2
9,TTAGGCACGTGCAGCG,-0.15
10,CTGTACACGTGAGGTG,0.24
11,AGTTACACGTGGGCCT,0.09
12,AAGTCCACGTGTGTGT,-0.06
13,TTTTGCACGTGGAAGT,0.11
14,GGTTACACGTGGGGAT,0.09
15,CGGTGCACGTGCTGTT,-0.11
16,AAACTCACGTGTTGTA,0.39
17,AAATGCACGTGAAGTT,0.34
18,GATTTCACGTGAATTT,0.57
19,TGTAGCACGTGGGCTT,-0.17
20,GGTCTCACGTGAAGTG,0.44
21,GACGGCACGTGGGGTC,-0.16
22,GCAGGCACGTGATGGT,-0.07
23,GTGAGCACGTGGGAGC,-0.27
24,CCGGGCACGTGAGAGG,0.03
25,TTTTGCACGTGGTCGT,-0.05
26,GGTAGCACGTGTCGGG,-0.03

row,Sequence,relative binding free energy [kcal/mol]
1,GCAGTCACGTGCGGTG,0.01
2,TTTTGCACGTGGTGAC,-0.01
3,GTTGTCACGTGACTTA,0.32
4,TAGTGCACGTGGCAGG,-0.17
5,GAGTTCACGTGACGGG,0.38
6,GTGGACACGTGGTGGC,-0.05
7,ATTTGCACGTGTTATA,-0.01
8,GTTGGCACGTGTAAAA,0.16
9,TAAATCACGTGGTGAT,0.09
10,GTTGACACGTGAAGGT,0.38
11,TAGTACACGTGAGGTG,0.19
12,AGGTGCACGTGAGGCT,0.13
13,CGAGGCACGTGTGGGG,0
14,AGTGGCACGTGGTACG,-0.29
15,CGTTGCACGTGGAAGT,0.06
16,TAGAACACGTGGTGGG,0.02
17,TGATACACGTGTAGGG,0.14
18,AGCAACACGTGTTGGG,-0.03
19,GTTTACACGTGGTTCG,0.09
20,GGAGGCACGTGGTGAC,-0.13
21,GTATGCACGTGTTGTT,-0.04
22,TAGGCCACGTGTGTGT,-0.12
23,GGTCACACGTGAGGGC,0.34
24,TTGCACACGTGAGTGT,0.18
25,TTTGCCACGTGGTAAG,-0.15
26,GATTTCACGTGAGTAT,0.48

row,Sequence,relative binding free energy [kcal/mol]
1,AGTTTCACGTGGCTAT,0.17
2,GAGTTCACGTGGCGGC,0.25
3,TTTGTCACGTGTCTCG,0.14
4,AAGGGCACGTGAAATT,0.27
5,TAGTTCACGTGAGGGT,0.35
6,AATGTCACGTGATCTT,0.24
7,ATATTCACGTGGCGAT,0.16
8,AAGGACACGTGATGGG,0.09
9,ATCGTCACGTGGGCTT,0.06
10,GACGTCACGTGTACGG,0.42
11,ATAGGCACGTGGTGAG,-0.18
12,TCTTTCACGTGGTTTC,0.26
13,AGTTGCACGTGCTGGT,-0.04
14,ACTGGCACGTGTTGTG,-0.15
15,ATTTTCACGTGCTTTG,0.12
16,CGATTCACGTGTTTTT,0.21
17,TTTACCACGTGTTTTT,-0.05
18,TGTCACACGTGTGCTT,0.15
19,AAGTTCACGTGTTTCG,0.22
20,AGTTACACGTGGGAAG,0.11
21,AGTAACACGTGGTAGG,-0.13
22,TTGGTCACGTGAAGTT,0.38
23,GCTCGCACGTGGGGGA,-0.08
24,GAATTCACGTGCGGGT,0.36
25,AGGCTCACGTGGTATG,0
26,TTAATCACGTGGTTGG,0.13

row,Sequence,relative binding free energy [kcal/mol]
1,ATTTTCACGTGATCGT,0.16
2,AATAGCACGTGACGTG,0.06
3,TGCGTCACGTGTCTGT,0
4,GGAGTCACGTGATGGT,0.24
5,TGTAACACGTGAGTAA,0.11
6,GATTTCACGTGCGTAT,0.2
7,TTAGTCACGTGGATTA,0.18
8,GATAGCACGTGGGGCT,-0.16
9,CTTATCACGTGTTAAG,0.2
10,TTATGCACGTGGGATA,-0.17
11,TTTTTCACGTGTGGCG,0.41
12,CGGGTCACGTGTTAAT,0.24
13,TTTTGCACGTGGATCT,0.02
14,GCGTTCACGTGGTTGC,0.2
15,TTCTGCACGTGTTGTA,0.04
16,GGCTACACGTGAGGGA,0.39
17,GGTATCACGTGATTAT,0.13
18,CGTTGCACGTGTGAAT,0.22
19,TGGAGCACGTGGATGT,0.03
20,CGGCGCACGTGTGGGG,-0.04
21,ATGGGCACGTGTTATT,-0.14
22,TAATACACGTGGGCTT,-0.16
23,ACGTTCACGTGTGGTA,0.16
24,ATTTTCACGTGGCGGC,0.29
25,GTACGCACGTGTAGGT,-0.03
26,CGCTTCACGTGTTGGT,0.23

row,Sequence,relative binding free energy [kcal/mol]
1,TCTGCCACGTGGTTTT,-0.07
2,TAATACACGTGGGGAA,-0.03
3,TGTTTCACGTGGTACG,0.21
4,TGTATCACGTGTCAGG,0.16
5,TATATCACGTGTAGTG,0.09
6,GGGTTCACGTGGAATG,0.35
7,GGCAGCACGTGGTCGT,-0.01
8,GGGTGCACGTGAGTGG,0.31
9,GTGCTCACGTGGATGG,0.21
10,GCGGTCACGTGTTTTG,0.24
11,GGTGTCACGTGTACGG,0.06
12,TGCGCCACGTGGGGAG,-0.31
13,TAAGACACGTGTTATT,-0.03
14,GTGAGCACGTGTGGCT,-0.09
15,AGGTGCACGTGCGGAT,-0.14
16,GGGTTCACGTGGATAA,0.41
17,GGATGCACGTGTGAGC,0
18,TGCAGCACGTGGAGGG,-0.18
19,TAGAGCACGTGTTGTA,-0.04
20,AGAGACACGTGCGGGG,-0.06
21,TAAGTCACGTGAATTT,0.29
22,TGTTCCACGTGAGGCT,0.22
